Assay results taken from a collection of fitness landscapes (doi:10.1126/science.1257360).
Some of the results follow.

B1: PhoQ; a variant is named by its letters at X, in order, P23837 (parent)
chain: MKKLLRLFFPLSLRVRFLLATAAVVLVLSLAYGMVALIGYSVSFDKTTFRLLRGESNLFYTLAKWENNKLHVELPENIDKQSPTMTLIYDENGQLLWAQRDVPWLMKMIQPDWLKSNGFHEIEADVNDTSLLLSGDHSIQQQLQEVREDDDDAEMTHSVAVNVYPATSRMPKLTIVVVDTIPVELKSSYMVWSWFIYVLSANLLLVIPLLWVAAWWSLRPIEALAKEVRELEEHNRELLNPATTRELTSLVRNLNRLLKSERERYDKYRTTLTDLTHSLKTPLXXLQXXLRSLRSEKMSVSDAEPVMLEQISRISQQIGYYLHRASMRGGTLLSRELHPVAPLLDNLTSALNKVYQRKGVNISLDISPEISFVGEQNDFVEVMGNVLDNACKYCLEFVEISARQTDEHLYIVVEDDGPGIPLSKREVIFDRGQRVDTLRPGQGVGLAVAREITEQYEGKIVAGESMLGGARMEVIFGRQHSAPKDE

Variants of: B1
Experiment: enrichment ratio after two sorts for PhoP signalling (ratio (wild type AVST 3.29)); higher = more functional
Settings: with PhoP (E. coli)
In the case of LWSH, the enrichment ratio is reported as no more than 0.25.
Variant PWGA has an enrichment ratio of no more than 0.25.
Variant GYLF has an enrichment ratio of no more than 0.25.
For IVDL, the enrichment ratio was no more than 0.25.
Variant MYWK has an enrichment ratio of no more than 0.25.
HIYK showed an enrichment ratio of no more than 0.25.
In the case of QIGS, the enrichment ratio is reported as 4.23.
In the case of YTQI, the enrichment ratio is reported as no more than 0.25.
With PKSM the enrichment ratio was no more than 0.25.
KMPT showed an enrichment ratio of no more than 0.25.
Work on FVRM yielded an enrichment ratio of no more than 0.25.
In the case of SPWG, the enrichment ratio is reported as no more than 0.25.
IPEV was tested, and the enrichment ratio was no more than 0.25.
Variant SKMG has an enrichment ratio of 3.1.
FPGH showed an enrichment ratio of no more than 0.25.
Variant LEIK has an enrichment ratio of no more than 0.25.
With GKGS the enrichment ratio was no more than 0.25.
With FLTN the enrichment ratio was no more than 0.25.
In the case of QSAI, the enrichment ratio is reported as 7.95.
Work on EPLP yielded an enrichment ratio of no more than 0.25.
Variant YLIE has an enrichment ratio of no more than 0.25.
For NLVH, the enrichment ratio was no more than 0.25.
IKPM gave an enrichment ratio of no more than 0.25.
Work on LVTI yielded an enrichment ratio of no more than 0.25.
Variant YVKH has an enrichment ratio of no more than 0.25.
Work on LHMV yielded an enrichment ratio of no more than 0.25.
In the case of GLGK, the enrichment ratio is reported as no more than 0.25.
SKMR gave an enrichment ratio of no more than 0.25.
PQNN showed an enrichment ratio of no more than 0.25.
MYSP gave an enrichment ratio of no more than 0.25.
FRNW was tested, and the enrichment ratio was no more than 0.25.
In the case of LYCN, the enrichment ratio is reported as no more than 0.25.
HYWQ showed an enrichment ratio of no more than 0.25.
Variant EMYS has an enrichment ratio of no more than 0.25.
In the case of PYPT, the enrichment ratio is reported as no more than 0.25.
QQML gave an enrichment ratio of no more than 0.25.
VVVR was tested, and the enrichment ratio was no more than 0.25.
With HTEL the enrichment ratio was no more than 0.25.
Variant DYFS has an enrichment ratio of no more than 0.25.
In the case of VWCS, the enrichment ratio is reported as no more than 0.25.
NWVV gave an enrichment ratio of no more than 0.25.
Variant LDRL has an enrichment ratio of no more than 0.25.
DDHV showed an enrichment ratio of no more than 0.25.
For QIPN, the enrichment ratio was no more than 0.25.
QEGP was tested, and the enrichment ratio was no more than 0.25.
ALMM showed an enrichment ratio of 4.65.
NWEI gave an enrichment ratio of no more than 0.25.
With HMWT the enrichment ratio was no more than 0.25.
Work on GQVI yielded an enrichment ratio of no more than 0.25.
With NMTK the enrichment ratio was no more than 0.25.
With QHHN the enrichment ratio was no more than 0.25.
RRNP showed an enrichment ratio of no more than 0.25.
AGTL gave an enrichment ratio of 11.
In the case of KMKL, the enrichment ratio is reported as no more than 0.25.
In the case of KKEG, the enrichment ratio is reported as no more than 0.25.
ALCG was tested, and the enrichment ratio was 4.5.
GYGR showed an enrichment ratio of no more than 0.25.
NRGI showed an enrichment ratio of no more than 0.25.
LAHN showed an enrichment ratio of no more than 0.25.
DGSI showed an enrichment ratio of no more than 0.25.
Variant HTDD has an enrichment ratio of no more than 0.25.
IFGL showed an enrichment ratio of no more than 0.25.
Work on HWQF yielded an enrichment ratio of no more than 0.25.
For KHKT, the enrichment ratio was no more than 0.25.
In the case of WCLH, the enrichment ratio is reported as no more than 0.25.
NPQL showed an enrichment ratio of no more than 0.25.
In the case of APPH, the enrichment ratio is reported as no more than 0.25.
HQCF showed an enrichment ratio of no more than 0.25.
Work on YEAQ yielded an enrichment ratio of no more than 0.25.
With KNEF the enrichment ratio was no more than 0.25.
EMSI showed an enrichment ratio of no more than 0.25.
MHIT was tested, and the enrichment ratio was no more than 0.25.
In the case of SINS, the enrichment ratio is reported as 10.5.
DPIV gave an enrichment ratio of no more than 0.25.
For IRHW, the enrichment ratio was no more than 0.25.
EAHS was tested, and the enrichment ratio was no more than 0.25.
YWMN gave an enrichment ratio of no more than 0.25.
Variant HKGD has an enrichment ratio of no more than 0.25.
In the case of QDAM, the enrichment ratio is reported as no more than 0.25.
Work on MHIV yielded an enrichment ratio of no more than 0.25.
SCEA showed an enrichment ratio of no more than 0.25.
In the case of SLQI, the enrichment ratio is reported as 5.02.
NNIE was tested, and the enrichment ratio was no more than 0.25.
KDNV gave an enrichment ratio of no more than 0.25.
SMAH showed an enrichment ratio of 6.85.
Variant MYNT has an enrichment ratio of no more than 0.25.
VDCI gave an enrichment ratio of no more than 0.25.
Variant FMMW has an enrichment ratio of no more than 0.25.
For RMGC, the enrichment ratio was no more than 0.25.
MQWA gave an enrichment ratio of no more than 0.25.
Work on TQFY yielded an enrichment ratio of 2.58.
With PKRS the enrichment ratio was 0.391.
In the case of VDPF, the enrichment ratio is reported as no more than 0.25.
Work on TFCA yielded an enrichment ratio of 0.663.
PMAP showed an enrichment ratio of no more than 0.25.
In the case of YKMC, the enrichment ratio is reported as no more than 0.25.
WGAH showed an enrichment ratio of no more than 0.25.
With HWPF the enrichment ratio was no more than 0.25.
GDPH gave an enrichment ratio of no more than 0.25.
MAMP gave an enrichment ratio of no more than 0.25.
IIGE was tested, and the enrichment ratio was no more than 0.25.
Work on QRLK yielded an enrichment ratio of no more than 0.25.
For FLGL, the enrichment ratio was no more than 0.25.
Variant LDLP has an enrichment ratio of no more than 0.25.
Variant IWFS has an enrichment ratio of no more than 0.25.
FILV showed an enrichment ratio of 3.23.
SEMY gave an enrichment ratio of 5.04.
With KYYV the enrichment ratio was no more than 0.25.
In the case of FNKF, the enrichment ratio is reported as no more than 0.25.
With PIEI the enrichment ratio was no more than 0.25.
In the case of TDNL, the enrichment ratio is reported as no more than 0.25.
For RFEK, the enrichment ratio was no more than 0.25.
Work on GGPV yielded an enrichment ratio of no more than 0.25.
For KNLS, the enrichment ratio was no more than 0.25.
MPRV showed an enrichment ratio of no more than 0.25.
Variant GPIK has an enrichment ratio of no more than 0.25.
Work on WKLE yielded an enrichment ratio of no more than 0.25.
Variant HQAN has an enrichment ratio of no more than 0.25.
Variant FGVS has an enrichment ratio of no more than 0.25.
TSGF was tested, and the enrichment ratio was 8.13.
QKEA was tested, and the enrichment ratio was no more than 0.25.
Work on GMFR yielded an enrichment ratio of no more than 0.25.
VFIC gave an enrichment ratio of no more than 0.25.
Variant GHTT has an enrichment ratio of no more than 0.25.
Variant TCCA has an enrichment ratio of 6.15.
YRGH gave an enrichment ratio of no more than 0.25.
MIKF showed an enrichment ratio of no more than 0.25.
KTVV showed an enrichment ratio of no more than 0.25.
WPLK showed an enrichment ratio of no more than 0.25.
For VTNW, the enrichment ratio was no more than 0.25.
TVTY gave an enrichment ratio of no more than 0.25.
Work on LVNM yielded an enrichment ratio of no more than 0.25.
WWIF showed an enrichment ratio of no more than 0.25.
For IVLR, the enrichment ratio was no more than 0.25.
LCDN gave an enrichment ratio of no more than 0.25.
With TTNS the enrichment ratio was 3.5.
YTYG showed an enrichment ratio of no more than 0.25.
For NHEI, the enrichment ratio was no more than 0.25.
Work on FNAF yielded an enrichment ratio of no more than 0.25.
Variant DCKM has an enrichment ratio of no more than 0.25.
In the case of ECVG, the enrichment ratio is reported as no more than 0.25.
IIHM showed an enrichment ratio of no more than 0.25.
NGQE showed an enrichment ratio of no more than 0.25.
IIER was tested, and the enrichment ratio was no more than 0.25.
Variant TMAV has an enrichment ratio of 5.82.
MFIF was tested, and the enrichment ratio was no more than 0.25.
Work on EAWV yielded an enrichment ratio of no more than 0.25.
For ATCY, the enrichment ratio was 5.66.
HRNA was tested, and the enrichment ratio was no more than 0.25.
YWKN gave an enrichment ratio of no more than 0.25.
GKTR gave an enrichment ratio of no more than 0.25.
ITTH was tested, and the enrichment ratio was no more than 0.25.
With RMKL the enrichment ratio was no more than 0.25.
